Experimental data taken from PubChem BioAssay AID2451 (National Center for Advancing Translational Sciences (NCATS), 2010).
Hit rate of the full screen: of about 290,000 compounds, about 2,100 (0.72%) were called active. Inconclusive means that the source gave no clear call. Such entries were picked first, then a sample of the others. Calls come from the whole dose curve; as a rule, active = well fitted inhibition curve with a large enough effect; inconclusive = small, poorly fitted or top-dose-only effect, or effect the other way; inactive = flat fitted curve, though single readings scatter. Potencies beside an inconclusive call are fits to weak or partial responses and may not hold up.

molecular target: Fructose-bisphosphate aldolase (Giardia intestinalis (strain ATCC 50803 / WB clone C6)) (UniProt A8B2U2); assay: qHTS Assay for Inhibitors of Fructose-1,6-bisphosphate Aldolase from Giardia Lamblia; conditions: purified Giardia FBPA; activity, negative = inhibition: at 59.6 µM (top of the series) unless noted; note: nearly all actives have a fitted effect of over 55% in size
Sequence of UniProt A8B2U2 (A8B2U2 whole entry, looked up): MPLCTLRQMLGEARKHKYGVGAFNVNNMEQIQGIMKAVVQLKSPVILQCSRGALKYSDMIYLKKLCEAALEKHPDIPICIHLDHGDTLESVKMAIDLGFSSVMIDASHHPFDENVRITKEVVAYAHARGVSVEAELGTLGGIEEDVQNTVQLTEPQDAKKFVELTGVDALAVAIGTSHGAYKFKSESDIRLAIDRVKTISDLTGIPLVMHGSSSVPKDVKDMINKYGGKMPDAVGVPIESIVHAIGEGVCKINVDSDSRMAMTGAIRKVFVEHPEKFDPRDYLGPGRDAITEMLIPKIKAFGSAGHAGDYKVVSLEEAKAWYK
Method in brief: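 40 nM FBPA preincubated 10 min at RT with compound (up to 57.5 uM final), then substrate plus GAPDH/TPI/NAD/arsenate coupling and diaphorase/resazurin added. Fluorescence read after 20 min at RT, 525/598 nm.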
% is set by controls: 0 for no effect and ±100 for the full control effect; potency is the fitted concentration of half-maximal effect; tags give direction and shape of the fitted curve.

SMILES | Potency | activity, negative = inhibition
O=C1C(Cl)=C(Cl)C(=O)C(Cl)=C1Cl | active: 0.561 µM | –
Cc1ccc(-n2c(-c3ccc(Cl)cc3)n[nH]c2=S)cc1 | inconclusive: 7.08 µM [activator, partial curve] | –
COc1cccc(Oc2cn[nH]c2-c2ccc(O)cc2O)c1 | inconclusive: 17.7 µM [inhibitor, partial curve] | –
Fc1ccccc1N1CCN(CC2CCCCC2)CC1 | inconclusive: 25.1 µM [inhibitor, partial curve] | –
COc1cc(OC)cc(C(=O)Nc2nnc(-c3cccnc3)o2)c1 | inconclusive: 35.4 µM [inhibitor, single point] | –
CCOc1cc(N2CCOCC2)c(OCC)cc1NC(=O)COC(=O)[C@@H]1CCCN1S(=O)(=O)c1ccccc1F | inconclusive: 8.89 µM [inhibitor, partial curve] | –
Cn1nc([N+](=O)[O-])nc1S(C)(=O)=O | inconclusive: 17.7 µM [inhibitor, partial curve] | –
CC1(C)C(=O)NC2=C1C(=O)C(=O)c1ccccc12 | active: 0.158 µM | –
O=C(COc1ccc(Br)cc1Cl)NC(=O)NCc1ccccc1 | – | inactive: -0.737%
O=C(/C=N/O)NCCCN1CCCCCC1 | inconclusive: 19.9 µM [inhibitor, single point] | –
N/C(=N\NC(=O)Nc1ccc(Cl)cc1)c1ccccn1 | inconclusive: 15.8 µM [inhibitor, partial curve] | –
CC(=O)Nc1ccc2c(c1)CC1(C(=O)N(C)C(=O)N(C)C1=O)C1CCCN21 (centres undefined) | inconclusive: 6.29 µM [inhibitor, partial curve] | –
CCOCCCN1CC(=O)N2[C@@H](Cc3c([nH]c4ccccc34)C2(C)C)C1=O | inconclusive: 28.2 µM [activator, single point] | –
Cn1c(-c2ccccc2)cnc1NCc1cc2c(cc1[N+](=O)[O-])OCO2 | inconclusive: 7.92 µM [inhibitor, partial curve] | –
COc1cc(/C=C2/C(=O)NN(c3cccc(Cl)c3)C2=O)cc(Br)c1O | inconclusive: 7.08 µM [inhibitor, partial curve] | –
COc1ccc(/C=C/C(=O)c2cc(Br)ccc(=O)c2O)cc1 | inconclusive: 39.7 µM [activator, single point] | –
N/C(=N\OC(=O)Cc1cccs1)c1ccc(Br)cc1 | – | inactive: 4.52%
COc1ccc(-c2nnc(SCC(=O)Nc3nc4ccccc4s3)n2C)cc1 | – | inactive: 10.1%
COc1cc(NS(=O)(=O)c2cc3[nH]c(=O)c(=O)[nH]c3cc2C)cc(OC)c1OC | inconclusive: 39.8 µM [inhibitor, single point] | –
